Reference: PubChem BioAssay AID1347417 (National Center for Advancing Translational Sciences (NCATS), 2020)
Out of some 120,000 compounds screened, about 5,300 (4.4%) were called active. Inconclusive results, whose numbers are uncertain, are shown with a selection of clear calls. The call rests on the fitted dose curve; in most records, active means well fitted inhibition curve with a large enough effect; inconclusive means small, poorly fitted or top-dose-only effect; inactive means no such curve, though single readings can be large or run the other way. Potencies beside an inconclusive call are fits to weak or partial responses and may not hold up.

Experiment: qHTS Primary assay for Inhibitors of Plasmodium falciparum Dd2 growth in vitro; further: nearly all actives have a fitted effect of over 65% in size
Conditions: P. falciparum Dd2 growth, SYBR Green, 72 h; activity, negative = inhibition: at 28.9 µM (top of the series) unless noted; series mostly up to 28.9 µM
Text: Malaria, a parasitic disease spread to humans through the bite of a Plasmodium infected Anopheles mosquito, continues to be a global health burden affecting millions of people, with an estimated 228 million cases and 405,000 deaths in 2018. Concerns about safety and limitations of current antimalarial treatments strongly emphasize the need to develop new therapeutic options. The scarce number of chemotypes and validated drug targets with efficacy against the liver stage, have hindered development of new antimalarials. To address this, a chemoprophylactic drug discovery effort was conducted through a combined phenotypic high-throughput asexual blood stage and liver stage screen, providing a robust foundation to identify liver-stage active lead chemotypes. Compounds were initially screened against Plasmodium falciparum Dd2 strain parasites using a in vitro SYBRGreen-1 based 72 hr proliferation assay to identify novel chemotypes to advance to liver stage assays. NIH/NCATS Early Translation Branch Assay Submitter (PI): Anton Simeonov Ph.D.
Malaria-vivax Assay Protocol: PROTOCOL TABLE (as described by Inglese et al., 2007) SEQUENCE No. (e.g., 1, 2, 3, etc.); […] (e.g., Cells, Incubation, Reagent, etc.); VALUE; DESCRIPTION SEQUENCE, Parameter, Description 1; Reagent; 3 uL complete malaria growth medium, 1536 TC treated Black clear bottom plate 2; Controls; 23 nL positive control artesunate (300 nM final) to column 1; Neutral control DMSO to columns 2-4 3; Compound; 23 nL of compounds in dose response concentration (29 uM to 0.5 nM final) 4; Reagent; 5 uL malaria infected red blood cells (2.5% hematocrit final, 0.3% parasitemia 5; Time; 72 hours at 37C (5% O2, 5% CO2, 90% N2; 95% Rh) 6; Reagent; 2 uL lysis buffer/SYBRGreen-1, 25 sec shake immediately following dispense 7; Time; ~16 hours at 37C (5% O2, 5% CO2, 90% N2; 95% Rh) 8; Detector; EnVision (PerkinElmer) bottom read at 485/14nm excitation and 535/25 nm emission NOTES (numbers refer to sequence above): 1; Complete Malaria Growth Media: 1X RPMI-1640 w/L-glutamine, 5.5g/L Albumax II, 367 uM Hypoxanthine, 25 mM HEPES, 0.25% Sodium Bicarbonate, 35 uM Gentamicin sulfate 2; Controls were added using the Kalypsis Pintool (Wako USA) equipped with 1536 pinhead 3; Compounds were added in a 7-point, titration with a high final concentration of 29 uM by Pintool from seven inter-plate titrations of library plates and two DMSO control plates at the beginning and end (see Yasgar et al., 2008). 4; Red blood cells infected with Plasmodium falciparum Dd2 parasites were used. 6; Lysis buffer: 20 mM Tris-HCl, 10 mM EDTA, 0.16% Saponin, 1.6% Triton-X, 10X SYBR Green. REFERENCE: Inglese J, Shamu CE, Guy RK. 2007. Reporting data from high-throughput screening of small-molecule libraries. Nat Chem Biol. doi:10.1038/nchembio0807-438 Yasgar A, Shinn P, Jadhav A, Auld D, Michael S, Zheng W, Austin CP, Inglese J, Simeonov A. 2008. Compound Management for Quantitative High-Throughput Screening. J Lab Autom 13:79-89. doi:10.1016/j.jala.2007.12.004
Potency means the concentration at half of the fitted maximal effect; tags describe the fitted curve by direction and shape.

Structure (SMILES)	Potency	activity, negative = inhibition	outcome
CCC(=O)N1Cc2ccccc2CC2(CCCN(Cc3cccnc3)C2)C1 (stereo not given)	inconclusive: 7.08 µM [inhibitor, partial curve]	–	–
O=C1[C@@H]2C[C@@H](O)CN2C2(CN(Cc3ccccc3F)C2)C(=O)N1Cc1cccc(Cl)c1	inconclusive: 2 µM [inhibitor, partial curve, poor fit]	–	–
CCC(=O)N1CCc2cc(Br)cc(S(=O)(=O)CCC(=O)Nc3ccc(C)c(C)c3)c21	inconclusive: 2.82 µM [inhibitor, full curve, poor fit]	–	–
CCCC(=O)N1Cc2ccccc2CC2(CCCN(Cc3ccncc3)C2)C1 (stereo not given)	inconclusive: 17.8 µM [inhibitor, single point]	–	–
O=C(CN1CC2CC(C1)[C@H]1CCCC(=O)N1C2)NCCCN1CCc2ccccc2C1 (stereo not given in full)	inconclusive: 12.6 µM [inhibitor, partial curve]	–	–
COC(=O)[C@@H]1Cc2ncn(Cc3ccc(Cl)cc3)c2CN1Cc1cccs1	inconclusive: 5.01 µM [inhibitor, full curve]	–	–
COC(=O)[C@@H]1Cc2c([nH]c3ccccc23)[C@H]2C[C@@H](NC(C)C)C[C@@H](c3ccccc3)N21	inconclusive: 22.4 µM [inhibitor, single point]	–	–
CCn1cc(C(=O)NCCCN(CC(C)C)CC(C)C)c(=O)c2cc(S(=O)(=O)N(C)C3CCCCC3)ccc21	inconclusive: 7.08 µM [inhibitor, partial curve, poor fit]	–	–
COc1cccc(CN2CCC(n3cc[nH]c3=O)CC2)c1	–	inactive: 20.9% [at 44.1 µM]	–
CCNC(=O)c1ccc2c(c1)C1(CCN(CC3CC3)C1)CN2Cc1ccccc1 (stereo not given)	–	–	inactive [at 44.1 µM]
COc1ccc(C(=O)Nc2nc3c(s2)CCc2cc(OC)ccc2-3)cc1	inconclusive: 17.8 µM [inhibitor, single point]	–	–
O=C1NCCCCCCN(Cc2ccncc2)[C@@H]2CN(S(=O)(=O)Cc3ccccc3)CC[C@H]12	inconclusive: 3.98 µM [inhibitor, single point]	–	–
COc1ccc(-c2nnc3ccc(NCCc4ccccc4)nn23)nc1	inconclusive: 11.2 µM [inhibitor, single point]	–	–
O=C(c1cc(F)ccc1Cl)N1CCC(n2cc(-c3nc(C4CC4)no3)nn2)C1 (stereo not given)	–	–	inactive
CCN(C(=O)Cn1cc(S(=O)(=O)Cc2ccccc2Cl)c2ccccc21)c1ccccc1	inconclusive: 10 µM [inhibitor, single point]	–	–
Cc1ccc(C)c(N2CCN(C(=O)Cn3c(-c4cccs4)cc4ccccc43)CC2)c1	inconclusive: 17.8 µM [inhibitor, single point]	–	–
NC(=O)[C@H]1CCCN1Cc1c(C(=O)N2CCCCCCC2)nc2sccn12	–	inactive: -12.5%	–
CCOC(=O)c1ccc(NC(=O)C(CC)Sc2nc3ncccc3o2)cc1 (stereo not given)	inconclusive: 14.1 µM [inhibitor, partial curve, poor fit]	–	–
Cc1ccc(CN2CC(Oc3ccc(-c4noc(-c5cccnc5)n4)cc3)C2)o1	inconclusive: 0.316 µM [inhibitor, full curve, poor fit]	–	–
COCCCNC(=O)c1ccc2c(c1)n(Cc1cccc(OC)c1)c(=O)c1ccnn12	inconclusive: 12.6 µM [inhibitor, single point]	–	–

Structure (SMILES)	Potency	activity, negative = inhibition	outcome
Cc1ccc(C)c(Nc2nn3c(=O)c4ccc(C(=O)NCCc5ccccc5)cc4nc3s2)c1	–	inactive: 6.43%	–
Cc1nc(-c2c3n(c(=O)n(CC(=O)Nc4ccccc4Cl)c2=O)CCCC3)no1	–	inactive: 7.27%	–
COc1nc2nc(CCc3ccccc3)n(C)c2cc1Nc1ccncn1	–	inactive: -11.8% [at 44.1 µM]	–
O=C(c1nnc(COc2cccc(N3CCOCC3)c2)n1Cc1ccccc1)N1CCC[C@@H]1c1ccc(Br)cc1	inconclusive: 3.55 µM [inhibitor, partial curve, poor fit]	–	–
COc1ccc(CCNc2ncnc3c2c(-c2ccccc2)cn3-c2ccc(F)cc2)cc1OC	inconclusive: 12.6 µM [inhibitor, single point]	–	–
O=C(Nc1ccc(OC(F)(F)F)cc1)c1cc(-c2ccc[nH]2)n[nH]1	–	inactive: -22.3%	–
COc1ccc(C2(C(=O)N3CCCC(C(=O)NCc4ccccc4)CCNC(=O)CC3)CC2)cc1 (stereo not given)	inconclusive: 10 µM [inhibitor, partial curve, poor fit]	–	–
Cc1cc(Br)ccc1NC(=O)c1cn(C2CCCC2)c(=O)c2c1c1ccccc1n2C	inconclusive: 0.0224 µM [inhibitor, full curve, poor fit]	–	–
Clc1ccc(Cn2ccnc2-c2cc3n(n2)CCCNC3)cc1Cl	inconclusive: 7.94 µM [inhibitor, partial curve, poor fit]	–	–
CCOc1cc(C2c3c(oc4ccc(F)cc4c3=O)C(=O)N2Cc2ccco2)ccc1O (stereo not given)	inconclusive: 8.91 µM [inhibitor, partial curve, poor fit]	–	–
Cc1ccccc1C(=O)N1CCC2(CC1)NC(=O)N(c1cccc(F)c1)N2	inconclusive: 6.31 µM [inhibitor, partial curve, poor fit]	–	–
Cc1ccc(-n2c(SCC(=O)Nc3ccc4c(c3)OCO4)nc3c([nH]c4ccccc43)c2=O)cc1	active: 10 µM	–	–
O=C(NC[C@H]1OC[C@@H](NC2CCCCC2)[C@@H]1O)N1CCOCC1	–	inactive: 26% [at 44.1 µM]	–
Cc1cc(C)cc(-n2ccnc2SCC(=O)Nc2nc3ccccc3s2)c1	–	inactive: 9.7%	–
COc1ccc(-c2cc(N3CCCC(NC(=O)c4ccc5cc[nH]c5c4)C3)n[nH]2)cc1 (stereo not given)	inconclusive: 3.98 µM [inhibitor, single point]	–	–
Cc1ccc(N2CCC(NC(=O)Cc3ccccc3C)C2=O)cc1 (stereo not given)	–	–	inactive
CCc1nc(-c2c3n(c(=O)n(Cc4ccc(OC)c(F)c4)c2=O)CCCC3)no1	inconclusive: 11.2 µM [inhibitor, single point]	–	–
Cc1ccccc1Cn1nnc2c(=O)[nH]c(C3CCN(C(=O)c4ccccc4)CC3)nc21	inconclusive: 12.6 µM [inhibitor, partial curve, poor fit]	–	–
CCOC(=O)c1cnc2ccc(C(=O)OC)cc2c1Nc1ccccc1CC	inconclusive: 17.8 µM [inhibitor, single point]	–	–
CN1CCCC2(Cc3ccccc3CN(C(=O)C3CCCC3)C2)C1 (stereo not given)	inconclusive: 6.31 µM [inhibitor, partial curve]	–	–
